Results on 22 molecules are retold here after publication PMC12136788.

The other results are listed elsewhere or left out.

First the molecules themselves.
T1: UNK ZnF1-3 (human, UniProt Q9C0B0 31-174)
T1 sequence: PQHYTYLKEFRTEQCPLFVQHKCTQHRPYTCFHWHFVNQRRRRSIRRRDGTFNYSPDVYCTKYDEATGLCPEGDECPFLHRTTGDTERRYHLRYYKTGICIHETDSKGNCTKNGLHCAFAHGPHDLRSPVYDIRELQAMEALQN

B1: chr18:60570258:60570259:+_ENSG00000081913_ENST00000262719|hu_hu|FALSE|FALSE (ssRNA)
RNA: GGGAGUUCUACAGUCCGACGAUCCUUAUUGUCUCGUAGGUCAAGCUGAGUAACAUGCUGUAGAAAGUCCACUUCAUCUGCUAUCAGCUUCCUAAUUACGUUCAACCUUAGAUCCACAUGUUUAAUGUGAGGCAUUUUUCUUAACAACAGAGGAUUGAGCAUCA
B2: chrX:102931600:102931601:-_ENSG00000123562_ENST00000441076|hu_mus|motif|central (ssRNA)
RNA: GGGAGUUCUACAGUCCGACGAUCGUCCUCCACCAGCCACGGUUUUAAUUCUUCAGGGAUCUUCACCUUCACCUCCAUCCGGCUCUUGAAUGCCUCCUCGCUCUCCACAGUGGGGUCAGCCCGUGCCCUUUUCUUCCGAGGGGGCAACAGAGGAUUGAGCAUCA
B3: chr2:230636304:230636305:-_ENSG00000153827_ENST00000389045|hu_hu|motif|central (ssRNA)
RNA: GGGAGUUCUACAGUCCGACGAUCGUACUGAAGAUGACUGAGUGGGAAGACUGAUUCAAAUCCAUCUCUGAACGAAUCAAAUUGCCGGGAAACGCCUUCAUUUAGUGCCCAGAAUAUAACCAGUCUUAGAUACUCCUCUAAAUUCAACAGAGGAUUGAGCAUCA
B4: chr8:30643436:30643437:-_ENSG00000104695_ENST00000221138|hu_mus|FALSE|FALSE (ssRNA)
RNA: GGGAGUUCUACAGUCCGACGAUCGAAUUCUUAAAAAAUAAAACUCCAACUCUAUAAUCCAUGCCAGUUAAACUUGUUAACUAAAUUUCCAAGUAAGCGCAAAGGAGACGAAGCAGUCAGUGACCCUUUUUGCUUAACCAGUCACAACAGAGGAUUGAGCAUCA
B5: 29788120_29801711_2703_CDS_ENSG00000197321_ENST00000375400|human|control|control (ssRNA)
RNA: GGGAGUUCUACAGUCCGACGAUCCUCCUCUCUCACAGUGAUGAGCUGCUUCCUCUCCUCAAUCGUCAUUUGGCUCUCUCGACUUUCUGUGACCCGCUUCUUGAUGAGGGACCGCCCUGCUUCCUGGGUGUGCAGGCUGCUGGCCAACAGAGGAUUGAGCAUCA
B6: 180814855_180814975_3466_3pUTR_ENSMUSG00000016346_ENSMUST00000149964|mouse|control|control (ssRNA)
RNA: GGGAGUUCUACAGUCCGACGAUCCAGUGCCACACCAGGAAAAAGCAGAGGCCAUGAAGUGUCAACUCAUACCUUCUGGGCUACAGUGCCAGGGAUGAGCCAGCCAGAACCUGCUGAAGAAACCUUUUCAGAAAAGGCUGUGAGCAACAGAGGAUUGAGCAUCA
B7: chr1:115275314:115275315:-_ENSG00000009307_ENST00000339438|hu_mus|motif|central (ssRNA)
RNA: GGGAGUUCUACAGUCCGACGAUCAACCUCUAUGUUGGUUGCUCGUUCCAAUUUGUCACGUCGGUCUGUUGAAAUAUUAAACCGGACAUGGUCACCUUCCAGCAGGGUCACUUUGGAUUUUGUGUCUUUGUCUCCAAAGGGAAGCAACAGAGGAUUGAGCAUCA
B8: chr2:32530853:32530854:+_ENSG00000119820_ENST00000437765|hu_hu|FALSE|FALSE (ssRNA)
RNA: GGGAGUUCUACAGUCCGACGAUCAAACAGAAUUUAAAAUUCUGACCCAAAAAUCCCAGAUAACUGCAAUUGCUUAAUUAAAUACAAAAAAAAAUUGUUUUAAAAAGCGCUUAGACUUCCCUUUCCAUCUGGAACAUGUAAAAUCAACAGAGGAUUGAGCAUCA
B9: chr12:39763582:39763583:-_ENSG00000139116_ENST00000544797|hu_mus|FALSE|FALSE (ssRNA)
RNA: GGGAGUUCUACAGUCCGACGAUCCUCUAGGAACUGGGCAUUCACUUUGAAUUCAGGAGGGGGCAGCCCGUUUUUAAUCGCUGAGGUCUUUUUCUCAUCAAUACUCUUGAACAGGUGUCUAACAGCACGAGAGAUGAUGCCCUGCAACAGAGGAUUGAGCAUCA
B10: chr14:89338683:89338684:+_ENSG00000165533_ENST00000346301|hu_hu|hu_hu_hu_mus_False|38_108 (ssRNA)
RNA: GGGAGUUCUACAGUCCGACGAUCGUGGUUGUUGUUGACCAGGGCCAGCCUGAAGCAUUGGUGGGCCAAGUUUGUAUCUCCGAUUCCCACAGCUAUGUGUCCCAAGUUGUACCAGACAUCAGCUGCCUCUUCUUCAUUUUCAGCCAACAGAGGAUUGAGCAUCA
B11: chr14:66974463:66974464:+_ENSMUSG00000022044_ENSMUST00000074523|mus_hu|mus_mus_mus_hu_False|1_8 (ssRNA)
RNA: GGGAGUUCUACAGUCCGACGAUCUUGUAGGACGACUUAUUCAGGGGAUCGGCCAGGAAGCAGGAGCAGAACAAGGACACCAGCGGGAGCUCCUUCAUCUUCUCUUUGUAGGCAGCAAGGGUCAUGUUGGCUGGAAUCUGGUGGCAACAGAGGAUUGAGCAUCA
B12: chr2:217001844:217001845:+_ENSG00000079246_ENST00000392132|hu_hu|hu_hu_hu_mus_False|78_98 (ssRNA)
RNA: GGGAGUUCUACAGUCCGACGAUCACCAACUUGAGGAUUAGCUCUUUUGUCAUAAGCAUAUCGAACUAUGGCGACCAUGUUUAACUCAUCCAAAGCAUGAACGAGAGAGGAAAGGGCAACAGCUGCCGCCUCAUCAUCCUUUGCCAACAGAGGAUUGAGCAUCA
B13: chr14:60920330:60920331:+_ENSMUSG00000021987_ENSMUST00000022563|mus_mus|FALSE|FALSE (ssRNA)
RNA: GGGAGUUCUACAGUCCGACGAUCGCAAAAUCUCCACUACCCGCACUUCCCUUUUUCCUUUACCUGAAAGUUUAUAGGCAGCUACAGUCAAGUUAAAAAUGUAUUUAGUACUCAGAACGCUUUAGAGCUUUGCCACUUUAAAUGCAACAGAGGAUUGAGCAUCA
B14: chr1:169080634:169080635:+_ENSG00000143153_ENST00000367816|hu_hu|FALSE|FALSE (ssRNA)
RNA: GGGAGUUCUACAGUCCGACGAUCGGUGAGCAGCAUCACUUGGAUGGUUCCGAUGAAGAUGCCAGCCAGGCAGCCAUAAAAUAUUACGUAGAAUAGAAGGAUCUUAAACCAACUGCCACCGGUCCUGCCCAGAAACUCCUUCUUCAACAGAGGAUUGAGCAUCA
B15: 59359030_59359150_1781_CDS_ENSG00000157450_ENST00000557998|human|control|control (ssRNA)
RNA: GGGAGUUCUACAGUCCGACGAUCGUGGUGGUGAUGAUGUUGAAAAUGGUGACCAUGCUGCUGAAAGCAACUUGUAUGAGGAUGUCCUAAUGCAUGGUGGUUCUGUGACGACCCUCCACAUGGUGAGUGCUGGGGACAGCAGGACAACAGAGGAUUGAGCAUCA
B16: chr17:65740002:65740003:+_ENSG00000130935_ENST00000581375|hu_hu|hu_hu_hu_mus_False|8_48 (ssRNA)
RNA: GGGAGUUCUACAGUCCGACGAUCAACAAAUCUUUCUUCCCUGGACGAACAGGAAGAUUCAUAUUAAAAAAAAUAUAUAUCCAUCAAGGAGAAUUGAGUGGCCACACCUUUACUCCCAGCACUUUGGGAAUAUAAUCUCUGAGUCAACAGAGGAUUGAGCAUCA
B17: chrX:160370135:160370136:+_ENSMUSG00000031367_ENSMUST00000069041|mus_hu|motif|central (ssRNA)
RNA: GGGAGUUCUACAGUCCGACGAUCAAUGAAGCGGCUUAGCAAAACAGUAAUACUGACAAGACAUCAUCUUACACCAUGAGCGGACAUGGACAUGAAGGGAGUGACCAUCUACAGUGUGUGAAAUGCCACAAGAAGUCAUCAACACAACAGAGGAUUGAGCAUCA
B18: 137892206_137892507_1962_CDS_ENSG00000113013_ENST00000297185|human|control|control (ssRNA)
RNA: GGGAGUUCUACAGUCCGACGAUCAUUUUCUCCUGUUUCGCUGUCUUUUCUAGCCAGGAGCUCCCUCAUUUUGGAAAUCUCUUCUUUCAGCUUGUUGCACUCAUCAGCAGGUAAUUGGUCCUUGAAUUCUUCCAUCUUGGUUUCCAACAGAGGAUUGAGCAUCA
B19: chr8:95500983:95500984:-_ENSG00000164944_ENST00000437199|hu_hu|hu_hu_hu_mus_True|68_98 (ssRNA)
RNA: GGGAGUUCUACAGUCCGACGAUCAGAACACAUCUAUUCGUGUAAAGACCGUACAUGACGGCCUCUAACCACUGCCUCACUAACAAACUUUCCUCUCGAGCCUCCACUGCCGCUAUUUGUACUAGCCCAGGACGGUCCCAGGCCCAACAGAGGAUUGAGCAUCA
B20: chr1:112309342:112309343:+_ENSG00000064703_ENST00000369702|hu_mus|FALSE|FALSE (ssRNA)
RNA: GGGAGUUCUACAGUCCGACGAUCUCUCCAGUACUCCUCAUAAUCCUGGUAAGUAUCAGAAAAACUUGCAGUUGUUUCCCUGUGACAGUCAUACCAACUCUCUUCCUGGGGUUCUGACUGUACUCGGUAAGAAGAACGCCGUGCCAACAGAGGAUUGAGCAUCA
B21: chr19:8913615:8913616:-_ENSMUSG00000071658_ENSMUST00000096259|mus_hu|mus_mus_mus_hu_False|38_68 (ssRNA)
RNA: GGGAGUUCUACAGUCCGACGAUCAGGGUACCAAAACCUUCUGCCUGAAAUGGGUGCCCCACCCAGUCAGGACUUGGAGCUGAAAGUAUCUGAUGCACUGACAGUUACUAUACGAAAGGAGGCCCCUGGGGAGGGCCAGGCCAGCAACAGAGGAUUGAGCAUCA
B22: chr17:65740002:65740003:+_ENSG00000130935_ENST00000581375|hu_hu|hu_hu_hu_mus_False|38_48 (ssRNA)
RNA: GGGAGUUCUACAGUCCGACGAUCAACAAAUCUUUCUUCCCUGGACGAACAGGAAGAUUCAUAUUAAAAAAAAUAUAUAUCCAUCAAGGAGAAUUGAUAAUAUCAGACUUUACUCCCAGCACUUUGGGAGGUGGAUCUCUGAGUCAACAGAGGAUUGAGCAUCA

The assay concerns the target T1, UNK ZnF1-3. Description: nsRBNS (natural sequence RNA bind-n-seq); RBNS binding buffer (assumed for nsRBNS): 25 mM Tris pH 7.5, 150 mM KCl, 3 mM MgCl2, 0.01% Triton X-100, 500 ug/ml BSA, 20 U/ml SUPERase-In, 4 C; UNK is unkempt and MSI1 is Musashi-1; names of the RNAs are library labels; protein concentration not given here; high values mean tight binding.
With B1, the binding signal was 0.782 enrichment R.

The molecule B2 yielded a binding signal of 0.926 enrichment R.

B3 had a binding signal of 1.03 enrichment R.

With B4, the binding signal was found to be 0.856 enrichment R.

On to B5, for which the binding signal came out at 0.745 enrichment R.

For B6, the binding signal was 1.59 enrichment R.

B7 displayed a binding signal of 0.634 enrichment R.

B8: the binding signal was found to be 1.23 enrichment R.

For the molecule B9, the binding signal worked out at 1.75 enrichment R.

The molecule B10 returned a binding signal of 0.722 enrichment R.

Turning to B11, the binding signal stood at 2.33 enrichment R.

In turn, B12 yielded a binding signal of 2.01 enrichment R.

Consider B13, for which the binding signal was 1.3 enrichment R.

Molecule B14 had a binding signal of 2.19 enrichment R.

For the molecule B15, the binding signal was found to be 1.2 enrichment R.

B16: the binding signal was 2.18 enrichment R.

Regarding B17, the binding signal amounted to 1.42 enrichment R.

As for B18, the binding signal worked out at 0.307 enrichment R.

Turning to B19, the binding signal amounted to 0.884 enrichment R.

B20 came in with a binding signal of 0.911 enrichment R.

B21 gave a binding signal of 1.25 enrichment R.

Molecule B22 gave a binding signal of 1.33 enrichment R.
